In the supplement of paper PMC8728848:
Some of the results follow.

Key:
Assay in all cases: glycan array binding signal (z-score within array); higher = stronger binding
Details in all cases: glycan notation: IUPAC condensed, linker removed
Fuc(a1-2)Gal = target: Fuc(a1-2)Gal
Outline: (§1)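 Arrays were curated from the Consortium for Functional Glycomics database, 3228 in total, and kept only where the protein sequence was available. Binding is expressed as a within-array Z-score. This score was averaged across arrays of the same protein sequence at different concentrations or buffers and across linkers, and negative values can be read as non-binding.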

Fuc(a1-2)Gal(b1-3)GalNAc = target: Fuc(a1-2)Gal(b1-3)GalNAc
Outline: as §1

[1] = target: Fuc(a1-2)Gal(b1-3)GalNAc(a1-3)[Fuc(a1-2)]Gal(b1-4)Glc
Outline: as §1

[2] = target: Fuc(a1-2)Gal(b1-3)GalNAc(a1-3)[Fuc(a1-2)]Gal(b1-4)GlcNAc
Outline: as §1

[3] = target: Fuc(a1-2)Gal(b1-3)GalNAc(b1-3)Gal
Outline: as §1

[4] = target: Fuc(a1-2)Gal(b1-3)GalNAc(b1-3)Gal(a1-4)Gal(b1-4)Glc
Outline: as §1

[5] = target: Fuc(a1-2)Gal(b1-3)GalNAc(b1-4)[Neu5Ac(a2-3)]Gal(b1-4)Glc
Outline: as §1

Fuc(a1-2)Gal(b1-3)GlcNAc = target: Fuc(a1-2)Gal(b1-3)GlcNAc
Outline: as §1

[6] = target: Fuc(a1-2)Gal(b1-3)GlcNAc(b1-2)Man(a1-3)[Fuc(a1-2)Gal(b1-3)GlcNAc(b1-2)Man(a1-6)]Man(b1-4)GlcNAc(b1-4)GlcNAc
Outline: as §1

[7] = target: Fuc(a1-2)Gal(b1-3)GlcNAc(b1-2)Man(a1-3)[Fuc(a1-2)Gal(b1-3)GlcNAc(b1-2)Man(a1-6)]Man(b1-4)GlcNAc(b1-4)[Fuc(a1-6)]GlcNAc
Outline: as §1

[8] = target: Fuc(a1-2)Gal(b1-3)GlcNAc(b1-3)Gal(b1-4)Glc
Outline: as §1

[9] = target: Fuc(a1-2)Gal(b1-3)GlcNAc(b1-3)GalNAc
Outline: as §1

[10] = target: Fuc(a1-2)Gal(b1-3)GlcNAc(b1-3)[Fuc(a1-2)Gal(b1-3)GlcNAc(b1-6)]GalNAc
Outline: as §1

[11] = target: Fuc(a1-2)Gal(b1-3)GlcNAc(b1-3)[Gal(b1-4)GlcNAc(b1-6)]Gal(b1-4)Glc
Outline: as §1

[12] = target: Fuc(a1-2)Gal(b1-3)GlcNAc(b1-3)[Neu5Ac(a2-6)Gal(b1-4)GlcNAc(b1-6)]Gal(b1-4)Glc
Outline: as §1

[13] = target: Fuc(a1-2)Gal(b1-3)GlcNAc6S
Outline: as §1

[14] = target: Fuc(a1-2)Gal(b1-3)[Fuc(a1-4)]GlcNAc
Outline: as §1

[15] = target: Fuc(a1-2)Gal(b1-3)[Fuc(a1-4)]GlcNAc(b1-2)Man(a1-3)[Fuc(a1-2)Gal(b1-3)[Fuc(a1-4)]GlcNAc(b1-2)Man(a1-3)]Man(b1-4)GlcNAc(b1-4)GlcNAc
Outline: as §1

[16] = target: Fuc(a1-2)Gal(b1-3)[Fuc(a1-4)]GlcNAc(b1-2)Man(a1-3)[Fuc(a1-2)Gal(b1-3)[Fuc(a1-4)]GlcNAc(b1-2)Man(a1-6)]Man(b1-4)GlcNAc(b1-4)[Fuc(a1-6)]GlcNAc(b1-4)[Fuc(a1-6)]GlcNAc
Outline: as §1

[17] = target: Fuc(a1-2)Gal(b1-3)[Fuc(a1-4)]GlcNAc(b1-3)[Fuc(a1-3)[Gal(b1-4)]GlcNAc(b1-6)]Gal(b1-4)Glc
Outline: as §1

[18] = target: Fuc(a1-2)Gal(b1-3)[Fuc(a1-4)]GlcNAc(b1-3)[Gal(b1-4)GlcNAc(b1-6)]Gal(b1-4)Glc
Outline: as §1

Fuc(a1-2)Gal(b1-4)Glc = target: Fuc(a1-2)Gal(b1-4)Glc
Outline: as §1

Fuc(a1-2)Gal(b1-4)Glc6S = target: Fuc(a1-2)Gal(b1-4)Glc6S
Outline: as §1

Fuc(a1-2)Gal(b1-4)GlcNAc = target: Fuc(a1-2)Gal(b1-4)GlcNAc
Outline: as §1

[19] = target: Fuc(a1-2)Gal(b1-4)GlcNAc(b1-2)Man
Outline: as §1

[20] = target: Fuc(a1-2)Gal(b1-4)GlcNAc(b1-2)Man(a1-3)[Fuc(a1-2)Gal(b1-4)GlcNAc(b1-2)Man(a1-6)]Man(b1-4)GlcNAc(b1-4)GlcNAc
Outline: as §1

[21] = target: Fuc(a1-2)Gal(b1-4)GlcNAc(b1-2)Man(a1-3)[Fuc(a1-2)Gal(b1-4)GlcNAc(b1-2)Man(a1-6)]Man(b1-4)GlcNAc(b1-4)[Fuc(a1-6)]GlcNAc
Outline: as §1

[22] = target: Fuc(a1-2)Gal(b1-4)GlcNAc(b1-2)[Fuc(a1-2)Gal(b1-4)GlcNAc(b1-4)]Man(a1-3)[Fuc(a1-2)Gal(b1-4)GlcNAc(b1-2)Man(a1-6)]Man(b1-4)GlcNAc(b1-4)GlcNAc
Outline: as §1

[23] = target: Fuc(a1-2)Gal(b1-4)GlcNAc(b1-3)Gal(b1-4)GlcNAc
Outline: as §1

[24] = target: Fuc(a1-2)Gal(b1-4)GlcNAc(b1-3)Gal(b1-4)GlcNAc(b1-2)Man(a1-3)[Fuc(a1-2)Gal(b1-4)GlcNAc(b1-3)Gal(b1-4)GlcNAc(b1-2)Man(a1-6)]Man(b1-4)GlcNAc(b1-4)GlcNAc
Outline: as §1

B1: B1257 (Bifidobacterium sp) (protein)
chain: MKKSIRLVAAIAALAMTAGISACGSSTNGNQAKSDVTAQDVETALTDTSKNVELTVWAYSAKQMEPTVKAFEKKYPHIKINFVNTGAAGDHFTKFQNVVQAQKDIPDVVQMGANKFQQFAVSGALLNFANDSIEKAWSKLYTKTAWAQVHYAGGLYGAPQDATPLANYVRKDILDEHNLQVPESWEDIYNEGIKLHKEDSNKYMGILGSDISFFTNLYRSVGARLWKVNSVDDVELTMNSGKAKEFTEFLQKCLKDGVLEGGTVFTDEFNRSINDGRYATFINENWMGNTYKEQNPSLKGKMVVAAPPSWKGQPYQSSSVGSMMSVSAACPKEKQAAALAFINWLDSDKDAIQSWQDTNNGNFFMAASVYQDDENQRNKKETDGYYANDDVNAVYFDSMDKVNTDWEYLPFMSQVEVVFNDVIVPQMNENGDLVGAMAKAQQELKTYAKDNGFKVTTDAD
For B1, the “glycan array binding signal (z-score)” value (Fuc(a1-2)Gal) was 23.9, the “glycan array binding signal (z-score)” value (Fuc(a1-2)Gal(b1-3)GalNAc) was -0.081 and the “glycan array binding signal (z-score)” value [1] was -0.012. The “glycan array binding signal (z-score)” value [2] was -0.127, the “glycan array binding signal (z-score)” value [3] was -0.117 and the “glycan array binding signal (z-score)” value [4] was -0.023. For the same binder, the “glycan array binding signal (z-score)” value [5] was -0.058, the “glycan array binding signal (z-score)” value (Fuc(a1-2)Gal(b1-3)GlcNAc) was -0.125 and the “glycan array binding signal (z-score)” value [6] was 0.217. For the same binder, the “glycan array binding signal (z-score)” value [7] was 0.153, the “glycan array binding signal (z-score)” value [8] was -0.03 and the “glycan array binding signal (z-score)” value [9] was -0.018. For the same binder, the “glycan array binding signal (z-score)” value [10] was -0.044, the “glycan array binding signal (z-score)” value [11] was -0.141 and the “glycan array binding signal (z-score)” value [12] was -0.127. For the same binder, the “glycan array binding signal (z-score)” value [13] was -0.082, the “glycan array binding signal (z-score)” value [14] was -0.158 and the “glycan array binding signal (z-score)” value [15] was 0.089. The “glycan array binding signal (z-score)” value [16] was 0.072, the “glycan array binding signal (z-score)” value [17] was -0.097 and the “glycan array binding signal (z-score)” value [18] was 0.009. The “glycan array binding signal (z-score)” value (Fuc(a1-2)Gal(b1-4)Glc) was 3.8, the “glycan array binding signal (z-score)” value (Fuc(a1-2)Gal(b1-4)Glc6S) was 0.089 and the “glycan array binding signal (z-score)” value (Fuc(a1-2)Gal(b1-4)GlcNAc) was -0.085. For the same binder, the “glycan array binding signal (z-score)” value [19] was -0.088, the “glycan array binding signal (z-score)” value [20] was -0.069 and the “glycan array binding signal (z-score)” value [21] was 0.05. For the same binder, the “glycan array binding signal (z-score)” value [22] was 0.166, the “glycan array binding signal (z-score)” value [23] was -0.132 and the “glycan array binding signal (z-score)” value [24] was 0.066.
